A short description of this data set: label from the status in PepcDB records.

As to “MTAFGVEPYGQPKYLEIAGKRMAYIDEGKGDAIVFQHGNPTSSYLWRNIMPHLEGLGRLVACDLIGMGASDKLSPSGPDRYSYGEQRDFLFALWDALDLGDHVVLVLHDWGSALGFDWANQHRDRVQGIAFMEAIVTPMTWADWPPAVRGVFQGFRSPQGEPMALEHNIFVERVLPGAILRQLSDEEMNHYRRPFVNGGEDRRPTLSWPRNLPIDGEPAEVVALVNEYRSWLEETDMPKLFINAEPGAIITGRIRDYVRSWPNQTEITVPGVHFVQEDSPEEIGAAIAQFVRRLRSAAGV”, the protein production entry is “not failed”.

These data come from a protein production outcome set (Wang et al. 2014).
